# Among all 94,000 compounds or so, about 6,200 (6.6%) were called active. The shares of active, inactive and inconclusive entries below differ from those in the screen. Calls follow the shape of the dose curve; as a rule, active = well fitted inhibition curve with a large enough effect; inconclusive = small, poorly fitted or top-dose-only effect; inactive = flat fitted curve, though single readings scatter. Potencies beside an inconclusive call are fits to weak or partial responses and may not hold up.
# Assay: Cytotoxic Profiling in HEK 293 Cell Line of Diverse Libraries Using Quantitative High-Throughput Screening; also: nearly all actives have a fitted effect of over 60% in size
# Conditions: HEK 293 viability, ATP luminescence (CellTiter-Glo), 48-72 h; activity change, negative = cytotoxicity: at 115 µM (top of the series) unless noted; series mostly up to 115 µM
# Summary of the method: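 250 HEK 293 cells/well; compound by pintool; incubated 48 or 72 hr at 37 degree Celsius; CellTiter-Glo added, 10 min RT, luminescence imaged.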
# % is scaled to controls: 0 for no effect and ±100 for the full control effect; potency is read from the fitted curve at half-maximal effect; tags tell the direction and shape of the fitted curve.
Structure (SMILES),outcome,Potency,"activity change, negative = cytotoxicity"
CCn1c(C2CCCN(S(=O)(=O)c3cccc4nonc34)C2)nn(C)c1=O (stereo not given),inactive,–,–
COC(=O)c1ccc2nc(C[C@@H]3C[C@@H](C(C)C)[C@H](CNC4CCOCC4)C=C3C)[nH]c2c1,–,"inconclusive: 56.2 µM [inhibitor, partial curve, poor fit]",–
O=C1CO[C@H]2CCN(Cc3ccccc3F)CC[C@@H]2N1Cc1ccccc1,–,"inconclusive: 100 µM [inhibitor, partial curve, poor fit]",–
COc1ccccc1NC(=O)N1CCC2(CC1)SCC(=O)N2Cc1ccco1,–,"inconclusive: 79.4 µM [inhibitor, single point]",–
COc1ccc(OC)c(C2CCN(C(=O)c3cc4ccccc4[nH]c3=O)C2)c1 (stereo not given),–,"inconclusive: 79.4 µM [inhibitor, partial curve, poor fit]",–
Cc1c(-c2ccccc2)[nH]c2c(CNC(=O)CN3C(=O)CNC3=O)cc(Cl)cc12,–,"inconclusive: 50.1 µM [inhibitor, partial curve, poor fit]",–
O=C(NCC1CC1)c1cn(C2CN(C(=O)Nc3ccc4c(c3)OCCO4)C2)nn1,–,–,inactive: -19.2%
COc1ccc(-c2nc(C3CC3)nc3c2CCN([S+](=O)([O-])c2ccccc2)CC3)cc1,–,–,inactive: -25.8%
CC1(C(=O)NCCN2CCCCC2)CCCCC(=O)N1 (stereo not given),–,–,inactive: -0.334%
Cc1ccc(CNC(=O)N2CCCC(c3noc(COc4ccccc4)n3)C2)cc1 (stereo not given),–,"inconclusive: 50.1 µM [inhibitor, partial curve, poor fit]",–
c1cncc(CN2CCc3c(sc4ncnc(N5CCOCC5)c34)C2)c1,–,"inconclusive: 89.1 µM [inhibitor, single point]",–
Cc1ccc(Nc2ccnc(N3CCC(NC(=O)Cc4ccccn4)CC3)n2)cc1,–,"inconclusive: 50.1 µM [inhibitor, partial curve, poor fit]",–
O=C(N[C@@H]1CN(C(=O)c2ccc3nc[nH]c3c2)CC[C@@H]1CO)C1CC1,–,–,inactive: -3.61%
CN1C(=O)N(Cc2cccnc2)C(=O)C12CCN(Cc1cc3ccccc3o1)CC2,–,"inconclusive: 35.5 µM [inhibitor, partial curve, poor fit]",–
CN(C)C(=O)N1CCCC(C(=O)NCc2nc(C3CCCCC3)no2)C1 (stereo not given),–,"inconclusive: 89.1 µM [inhibitor, single point]",–
COCCn1nc2n(c1=O)CCN(C(=O)COc1ccc(Cl)cc1C)CC2,–,"inconclusive: 89.1 µM [inhibitor, partial curve, poor fit]",–
CCOC(=O)C1CCCN(C(=O)c2cn3cc(-c4ccccc4)sc3n2)C1 (stereo not given),–,"inconclusive: 50.1 µM [inhibitor, partial curve, poor fit]",–
Cc1cccc(OCC2(CNCc3cccnc3)C[C@@H](O)[C@@H](O)C2)n1 (stereo not given in full),–,"inconclusive: 39.8 µM [inhibitor, single point]",–
Cc1cc(C)c([S+](=O)([O-])c2nnn3c2nc(N2CCCCC2)c2ccccc23)c(C)c1,–,–,inactive: -19.3%
O=C(NCc1cccc(F)c1)c1nc2c(o1)CCN(Cc1cccc(Cl)c1)CC2,–,"inconclusive: 63.1 µM [inhibitor, full curve, poor fit]",–
O=[S+]1([O-])NC2(CCN(Cc3ccc(Cl)s3)CC2)COc2ccccc21,–,"inconclusive: 79.4 µM [inhibitor, partial curve, poor fit]",–
CC(=O)N1CCCN(Cc2nc3c(n2Cc2ccccc2)C(=O)N(Cc2cccc(Cl)c2)CCN3)CC1,–,"inconclusive: 89.1 µM [inhibitor, partial curve, poor fit]",–

Structure (SMILES),outcome,Potency,"activity change, negative = cytotoxicity"
Cc1cc(=O)n(CC(=O)Nc2ccc(C(C)C)cc2)c(N2CCN(c3ccccc3)CC2)n1,–,"inconclusive: 31.6 µM [inhibitor, partial curve, poor fit]",–
CCCc1nnsc1C(=O)N[C@@H]1COCC[C@@H]1OCC1CC1,–,–,inactive: -15.7%
COc1ccc(CN2C[C@@H](CO)[C@H](c3ccccn3)C2)cc1C,–,"inconclusive: 50.1 µM [inhibitor, partial curve, poor fit]",–
COc1cc(NC(=O)Cn2c(N3CCN(c4ccccc4)CC3)nc(C)cc2=O)cc(OC)c1,–,"inconclusive: 22.4 µM [inhibitor, full curve, poor fit]",–
CN1C[C@@H]2CCCN3CCC[C@@H]([C@H]23)[C@H]1CCCC(=O)NC1CC1,–,–,inactive: 4.76%
Fc1ccc(C2Cn3cnc(-c4nc(-c5ccc6c(c5)OCO6)no4)c3CO2)cc1 (stereo not given),–,"inconclusive: 39.8 µM [inhibitor, full curve, poor fit]",–
O=C1Nc2ccccc2CC12CCCN2Cc1ccc(F)cc1 (stereo not given),–,–,inactive: -15%
COc1ccc(CCN2CCCC(CN(C)Cc3cnc[nH]3)C2)cc1 (stereo not given),–,"inconclusive: 89.1 µM [inhibitor, single point]",–
O=C1CCC2(CCCN(C(=O)c3ccc(F)cc3)C2)CN1CCc1cnc[nH]1 (stereo not given),–,–,inactive: -7.95%
CCOc1ccc2c(n1)CCN(C(=O)Nc1ccc(OC)cc1C)C2,–,–,inactive: -5.05%
Cc1ccccc1-c1[nH]nc2ncc(-c3ccsc3)nc12,–,active: 31.6 µM,–
CC1=C[C@@H](CN2C(=O)C(C)=C(C)C2=O)[C@H](C(C)C)C[C@H]1Cc1nc2ccccc2[nH]1,–,active: 22.4 µM,–
CCCc1noc(-c2cccn3c(CNC(=O)C4CCC4)nnc23)n1,inactive,–,–
COCc1ncc(C)n1CCNC(=O)Nc1ccc(C)c(C)c1,inactive,–,–
COc1ccc(CCNC(=O)c2ccc3nnc(-c4ccc([S+](C)(=O)[O-])cc4)n3c2)cc1,–,"inconclusive: 79.4 µM [inhibitor, single point]",–
COc1ccc(CN2CC[C@@](C)(O)[C@H](N3CCCC3)C2)cc1,–,"inconclusive: 56.2 µM [inhibitor, partial curve, poor fit]",–
O=C(CCc1nc2ccc(Cl)cc2[nH]1)N1CCc2nc3cc(-c4ccccc4)[nH]n3c(=O)c2C1,–,"inconclusive: 89.1 µM [inhibitor, single point]",–
O=C(c1[nH]nc2c1COc1ccccc1-2)N1CCCC(Cc2nc(C3CCOCC3)no2)C1 (stereo not given),–,"inconclusive: 79.4 µM [inhibitor, single point]",–
Oc1ccccc1CN1CCNc2cnc(Nc3ccccc3)cc2C1,–,"inconclusive: 70.8 µM [inhibitor, partial curve, poor fit]",–
C=CCOC(=O)C1=C(C)N=C2SC=C(CC(=O)N3CCCC3)N2C1c1ccccc1Cl (stereo not given),–,"inconclusive: 50.1 µM [inhibitor, partial curve, poor fit]",–
COc1ccc(-c2cc(N3CCN(C(=O)Cc4c(F)cccc4Cl)CC3)n[nH]2)cc1,–,–,inactive: -0.0158%
CN(C1CCOCC1)C1CCc2nn(C)c(=O)n2CC1 (stereo not given),–,–,inactive: -4.17%

Structure (SMILES),outcome,Potency,"activity change, negative = cytotoxicity"
O=C(Nc1cccc(F)c1)N1CCCC(Cn2c(C3CC3)nc3cccnc32)C1 (stereo not given),–,–,inactive: 2.35%
COc1cc(-c2onc(C)c2C(=O)NCCCOC(C)C)cc(OC)c1OC,–,–,inactive: -18.9%
Cc1noc(C)c1S(=O)(=O)N1CCCN(Cc2ccncc2)C(c2ccccc2)CC(=O)NCC1 (stereo not given),–,"inconclusive: 56.2 µM [inhibitor, partial curve, poor fit]",–
CCC(=O)N1CCC(O)(c2ccccc2)[C@H](N2CCCC2)C1 (stereo not given in full),–,"inconclusive: 89.1 µM [inhibitor, single point]",–
CC(C)n1nc(OC(C)(C)C(=O)NCCOc2ccccc2)c2cc(CN3CCOCC3)ccc21,–,"inconclusive: 89.1 µM [inhibitor, single point]",–
C=CCOc1ccc(CNC2CCN(S(C)(=O)=O)CC2)cc1CC=C,–,"inconclusive: 50.1 µM [inhibitor, partial curve, poor fit]",–
O=C1[C@H]2CN(Cc3cc(Br)ccc3F)C[C@H]2C(=O)N1CCc1ccccc1,–,"inconclusive: 89.1 µM [inhibitor, single point]",–
O=C1CC(c2ccccc2)N(C(=O)C2CC2)CCCN(C(=O)Cc2cccc(F)c2)CCN1 (stereo not given),–,–,inactive: 2.27%
CN1C[C@@H](NC(=O)Nc2cccc(C#N)c2)C[C@H]1c1nc(-c2ccccn2)no1,–,"inconclusive: 126 µM [inhibitor, single point]",–
CN1CCC2(Cc3ccccc3CN(C(=O)c3ccccc3)C2)C1 (stereo not given),–,"inconclusive: 100 µM [inhibitor, partial curve, poor fit]",–
CC(C)CCN1CCn2c(nnc2-c2ccccc2)C1,–,–,inactive: -9.93% [at 172 µM]
O=C(NC1CCCN(c2cc(-c3ccc(F)cc3)[nH]n2)C1)c1ccccc1Br (stereo not given),–,"inconclusive: 22.4 µM [inhibitor, full curve, poor fit]",–
CC(Cn1cncn1)C(=O)N1CCc2onc(-c3ccc(F)c(F)c3)c2C1 (stereo not given),–,"inconclusive: 89.1 µM [inhibitor, single point]",–
Cn1nc(C(=O)NC2CCc3nn(CC4CC4)c(=O)n3CC2)c2ccccc21 (stereo not given),–,–,inactive: -5.97%
Cc1ccc2c(n1)OC(COc1ccccc1)CN(Cc1cccc(F)c1)C2=O (stereo not given),–,"inconclusive: 39.8 µM [inhibitor, partial curve, poor fit]",–
COCCNC(=O)C1(C)CN(C)Cc2ccc(Nc3ccccc3)nc21 (stereo not given),–,"inconclusive: 112 µM [inhibitor, partial curve, poor fit]",–
CCc1nn(-c2ccc(OC)cc2)c(Oc2ccccc2F)c1CCC(=O)N1CCSCC1,–,active: 31.6 µM,–
COC(=O)CNC(=O)C1CCCN1C(=O)c1cccc(-c2ccccn2)c1 (stereo not given),–,–,inactive: -12.2%
O=C(Cc1ccc(F)cc1)N1CCN(C(=O)c2nc3cccnc3n(Cc3ccccc3)c2=O)CC1,–,–,inactive: -21.4%
Cn1nccc1C(=O)N1CC(N(C2CCOCC2)S(C)(=O)=O)C1,–,–,inactive: -2.69%
COc1ccc2[nH]c(CNC(=O)C(c3ccc(F)cc3)N(C)C)cc2c1 (stereo not given),–,"inconclusive: 70.8 µM [inhibitor, single point]",–

# — PubChem BioAssay AID1345083 (National Center for Advancing Translational Sciences (NCATS), 2018)
